The record followed here is article PMC9886552.

The target in experiment [1] is T1, C-terminally FLAG-tagged MCEE (UniProt Q96PE7).
T1 sequence: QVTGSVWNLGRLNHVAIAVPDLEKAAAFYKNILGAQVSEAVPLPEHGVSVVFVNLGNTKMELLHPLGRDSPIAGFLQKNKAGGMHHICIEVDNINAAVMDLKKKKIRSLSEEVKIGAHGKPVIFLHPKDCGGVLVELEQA
In words: co-IP; cross-linking IP: transfected 293T cells crosslinked with 0.5% PFA in PBS 10 min RT, quenched with glycine, lysed in 1% Nonidet P-40, 0.5% deoxycholine, 150 mM NaCl, 50 mM Tris-HCl pH 7.5; IP with anti-FLAG M2 on Dynabeads Protein G; immunoblot (anti-MMUT, anti-MMAB, anti-DLST). On the technique in general: A western blot detects proteins with antibodies after separation by electrophoresis.

Experiment [2] deals with T2, C-terminally FLAG-tagged ACO2 (UniProt Q99798).
T2 sequence: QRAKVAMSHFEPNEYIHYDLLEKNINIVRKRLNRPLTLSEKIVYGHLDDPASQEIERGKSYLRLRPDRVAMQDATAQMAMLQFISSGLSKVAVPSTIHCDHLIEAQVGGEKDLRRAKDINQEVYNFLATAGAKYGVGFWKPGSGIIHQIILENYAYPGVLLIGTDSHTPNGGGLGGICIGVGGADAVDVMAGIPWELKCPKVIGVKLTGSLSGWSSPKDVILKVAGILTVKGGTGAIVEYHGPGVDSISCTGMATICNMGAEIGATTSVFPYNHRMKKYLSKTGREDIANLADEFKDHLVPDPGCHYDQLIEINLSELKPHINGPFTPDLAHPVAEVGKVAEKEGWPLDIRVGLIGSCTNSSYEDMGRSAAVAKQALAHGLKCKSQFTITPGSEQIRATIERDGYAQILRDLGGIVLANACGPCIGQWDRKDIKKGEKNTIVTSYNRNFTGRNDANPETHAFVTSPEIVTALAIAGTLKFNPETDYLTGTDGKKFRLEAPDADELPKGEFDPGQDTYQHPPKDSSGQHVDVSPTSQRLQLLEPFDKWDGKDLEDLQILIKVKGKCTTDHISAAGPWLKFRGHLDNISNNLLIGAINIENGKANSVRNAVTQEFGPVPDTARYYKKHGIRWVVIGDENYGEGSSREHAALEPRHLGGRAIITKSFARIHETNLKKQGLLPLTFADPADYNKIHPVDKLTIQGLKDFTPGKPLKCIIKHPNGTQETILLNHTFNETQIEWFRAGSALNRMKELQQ
Described as above.

Experiment [3] concerns the target T3, C-terminally FLAG-tagged VLCAD (UniProt P49748).
T3 sequence: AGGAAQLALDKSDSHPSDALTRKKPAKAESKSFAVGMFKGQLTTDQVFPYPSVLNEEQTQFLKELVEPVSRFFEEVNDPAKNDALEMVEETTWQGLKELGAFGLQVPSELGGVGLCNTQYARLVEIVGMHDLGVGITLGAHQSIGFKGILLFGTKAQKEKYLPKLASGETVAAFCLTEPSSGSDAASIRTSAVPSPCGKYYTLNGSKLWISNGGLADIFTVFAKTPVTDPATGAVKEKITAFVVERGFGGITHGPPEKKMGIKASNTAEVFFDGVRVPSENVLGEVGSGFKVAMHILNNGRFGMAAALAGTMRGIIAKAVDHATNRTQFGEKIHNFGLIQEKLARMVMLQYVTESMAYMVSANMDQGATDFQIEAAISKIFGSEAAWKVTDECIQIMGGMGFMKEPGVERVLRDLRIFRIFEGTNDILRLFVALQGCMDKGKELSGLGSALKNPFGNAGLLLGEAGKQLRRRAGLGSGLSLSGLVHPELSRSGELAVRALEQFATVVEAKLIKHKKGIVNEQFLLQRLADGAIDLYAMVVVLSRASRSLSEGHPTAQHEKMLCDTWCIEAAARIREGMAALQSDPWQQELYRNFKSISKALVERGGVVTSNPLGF
The experiment is described as above.

For experiment [4], the target named is T4, C-terminally FLAG-tagged MMAA (UniProt Q8IVH4).
T4 sequence: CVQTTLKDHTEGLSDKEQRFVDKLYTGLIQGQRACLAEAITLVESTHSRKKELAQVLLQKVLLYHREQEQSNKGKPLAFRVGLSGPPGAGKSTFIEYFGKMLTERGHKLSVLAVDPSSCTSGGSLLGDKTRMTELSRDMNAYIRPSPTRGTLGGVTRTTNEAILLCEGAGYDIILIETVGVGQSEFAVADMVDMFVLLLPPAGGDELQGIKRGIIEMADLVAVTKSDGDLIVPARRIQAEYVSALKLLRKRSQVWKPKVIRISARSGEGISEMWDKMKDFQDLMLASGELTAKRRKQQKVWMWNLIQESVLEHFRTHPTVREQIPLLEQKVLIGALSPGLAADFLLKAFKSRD
Described as above.

In experiment [5] the target is T5, C-terminally FLAG-tagged MMAB (UniProt Q96EY8).
T5 sequence: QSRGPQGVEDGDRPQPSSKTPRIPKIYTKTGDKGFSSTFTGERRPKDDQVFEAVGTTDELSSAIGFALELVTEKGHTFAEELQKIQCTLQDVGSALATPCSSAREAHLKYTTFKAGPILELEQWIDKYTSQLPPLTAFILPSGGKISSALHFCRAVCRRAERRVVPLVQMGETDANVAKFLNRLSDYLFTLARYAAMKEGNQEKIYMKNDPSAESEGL
The experiment is described as above.

For experiment [6], the target named is T6, C-terminally FLAG-tagged methylmalonyl-CoA mutase (MMUT) (UniProt P22033).
T6 sequence: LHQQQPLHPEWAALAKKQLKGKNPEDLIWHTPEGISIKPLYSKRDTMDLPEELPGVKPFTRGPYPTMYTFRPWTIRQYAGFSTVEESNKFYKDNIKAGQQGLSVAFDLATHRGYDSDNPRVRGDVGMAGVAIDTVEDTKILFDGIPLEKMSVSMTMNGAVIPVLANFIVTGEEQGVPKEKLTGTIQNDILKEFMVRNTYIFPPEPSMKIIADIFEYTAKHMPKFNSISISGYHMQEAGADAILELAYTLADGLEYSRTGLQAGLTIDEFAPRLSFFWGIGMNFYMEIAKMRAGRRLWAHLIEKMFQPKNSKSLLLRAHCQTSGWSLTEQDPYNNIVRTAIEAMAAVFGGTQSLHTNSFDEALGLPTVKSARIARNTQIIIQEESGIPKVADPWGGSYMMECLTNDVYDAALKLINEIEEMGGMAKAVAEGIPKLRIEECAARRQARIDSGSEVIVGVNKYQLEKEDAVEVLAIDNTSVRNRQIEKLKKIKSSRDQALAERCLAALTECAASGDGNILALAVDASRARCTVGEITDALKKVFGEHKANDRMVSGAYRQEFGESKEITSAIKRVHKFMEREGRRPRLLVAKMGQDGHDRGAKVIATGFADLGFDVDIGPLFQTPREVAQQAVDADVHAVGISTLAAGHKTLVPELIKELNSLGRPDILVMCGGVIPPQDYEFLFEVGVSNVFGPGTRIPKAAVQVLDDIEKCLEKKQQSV
Described as above.

For experiment [7], the target named is T7, endogenous methylmalonyl-CoA mutase (MMUT) (human (endogenous in 293T)) (UniProt P22033).
T7 sequence: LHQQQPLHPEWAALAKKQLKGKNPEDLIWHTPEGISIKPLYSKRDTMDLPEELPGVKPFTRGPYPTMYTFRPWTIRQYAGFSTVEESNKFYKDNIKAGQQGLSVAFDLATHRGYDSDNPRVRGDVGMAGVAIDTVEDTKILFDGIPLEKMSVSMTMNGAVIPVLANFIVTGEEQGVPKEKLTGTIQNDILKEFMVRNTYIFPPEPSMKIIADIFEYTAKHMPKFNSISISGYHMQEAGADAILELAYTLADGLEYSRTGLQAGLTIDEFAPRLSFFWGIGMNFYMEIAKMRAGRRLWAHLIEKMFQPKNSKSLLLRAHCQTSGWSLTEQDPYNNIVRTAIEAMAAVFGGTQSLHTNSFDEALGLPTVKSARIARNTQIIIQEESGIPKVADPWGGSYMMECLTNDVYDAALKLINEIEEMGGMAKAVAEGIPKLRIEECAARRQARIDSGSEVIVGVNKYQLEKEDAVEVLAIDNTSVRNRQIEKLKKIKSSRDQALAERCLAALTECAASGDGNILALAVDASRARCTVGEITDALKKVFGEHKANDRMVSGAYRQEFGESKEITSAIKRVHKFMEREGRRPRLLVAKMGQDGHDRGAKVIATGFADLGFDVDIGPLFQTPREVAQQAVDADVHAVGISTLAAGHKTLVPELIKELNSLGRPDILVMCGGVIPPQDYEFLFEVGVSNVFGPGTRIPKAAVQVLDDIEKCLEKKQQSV
In words: co-IP; cross-linking IP of 293T cell extracts (0.5% PFA) with anti-MMUT or anti-MMAB on Dynabeads Protein G; immunoblot for endogenous MMAB and MMUT.

No constants are given. Whether binding was seen depends on the method and setting. Binding seen in cells or lysates may run through a third protein. Some entries that bind do so weakly or less than the wild type. For part of these data: Tags and fused reporters may be left off the sequences shown.

B1: endogenous MMAB (protein, UniProt Q96EY8 33-250)
chain: QSRGPQGVEDGDRPQPSSKTPRIPKIYTKTGDKGFSSTFTGERRPKDDQVFEAVGTTDELSSAIGFALELVTEKGHTFAEELQKIQCTLQDVGSALATPCSSAREAHLKYTTFKAGPILELEQWIDKYTSQLPPLTAFILPSGGKISSALHFCRAVCRRAERRVVPLVQMGETDANVAKFLNRLSDYLFTLARYAAMKEGNQEKIYMKNDPSAESEGL
For B1, the binding entry is “binds” in experiment [1]; “no binding” in experiment [2]; “no binding” in experiment [3]; “binds” in experiment [4]; “binds” in experiment [5]; “binds” in experiment [6]. For the same molecule, the binding result in experiment [7] was “binds”.

B2: endogenous methylmalonyl-CoA mutase (MMUT) (protein, UniProt P22033 33-750)
chain: LHQQQPLHPEWAALAKKQLKGKNPEDLIWHTPEGISIKPLYSKRDTMDLPEELPGVKPFTRGPYPTMYTFRPWTIRQYAGFSTVEESNKFYKDNIKAGQQGLSVAFDLATHRGYDSDNPRVRGDVGMAGVAIDTVEDTKILFDGIPLEKMSVSMTMNGAVIPVLANFIVTGEEQGVPKEKLTGTIQNDILKEFMVRNTYIFPPEPSMKIIADIFEYTAKHMPKFNSISISGYHMQEAGADAILELAYTLADGLEYSRTGLQAGLTIDEFAPRLSFFWGIGMNFYMEIAKMRAGRRLWAHLIEKMFQPKNSKSLLLRAHCQTSGWSLTEQDPYNNIVRTAIEAMAAVFGGTQSLHTNSFDEALGLPTVKSARIARNTQIIIQEESGIPKVADPWGGSYMMECLTNDVYDAALKLINEIEEMGGMAKAVAEGIPKLRIEECAARRQARIDSGSEVIVGVNKYQLEKEDAVEVLAIDNTSVRNRQIEKLKKIKSSRDQALAERCLAALTECAASGDGNILALAVDASRARCTVGEITDALKKVFGEHKANDRMVSGAYRQEFGESKEITSAIKRVHKFMEREGRRPRLLVAKMGQDGHDRGAKVIATGFADLGFDVDIGPLFQTPREVAQQAVDADVHAVGISTLAAGHKTLVPELIKELNSLGRPDILVMCGGVIPPQDYEFLFEVGVSNVFGPGTRIPKAAVQVLDDIEKCLEKKQQSV
In the case of B2, the binding result in experiment [1] is “binds”; in experiment [2] it was “no binding”; in experiment [3] it was “no binding”; in experiment [5], “binds”; in experiment [6], “binds”.
